The text below walks through data of the supplement of paper PMC3724861.

The list shows a part of the results.

For the assay, the system named is T1, Caupolican (Caup) homeodomain DNA-binding domain.
T1 sequence: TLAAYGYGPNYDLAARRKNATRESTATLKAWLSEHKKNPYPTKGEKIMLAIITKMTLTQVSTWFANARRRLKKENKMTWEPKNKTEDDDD
The assay can be described thus: PBM E-score (8-mer, recovered from the published 9-mer minima) (E-score (dimensionless, -0.5 to 0.5)); Drosophila protein; higher = stronger relative binding preference, active = 0.31 or more. An outline of the steps:
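An enrichment score, with higher meaning stronger, expresses relative binding preference for each short DNA word. The protein used was Caup's homeodomain DNA-binding domain (residues 214-303), produced by in vitro transcription and translation and tested at 100 nM on custom-designed protein binding microarrays. The 8-mer values were recovered from published 9-mer scores, each equal to the lower of its two constituent 8-mer scores.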
Regarding AGCTTCTG, the “PBM E-score” value was inactive: -0.14. In the case of AACGTGCC, the “PBM E-score” value is inactive: -0.107. The figure for ACAAAGGC is inactive: 0.0566. The value for AATGTGCG was inactive: 0.0368; that for AGAACATC was inactive: 0.235; that for ACTCTCAA was inactive: 0.00959. The value for AGGCTACA was inactive: 0.142. CGTATTTA: the “PBM E-score” value is inactive: 0.129. For CAGGGCCC, the “PBM E-score” value is inactive: -0.169. For the sequence AGATCCCG, the “PBM E-score” value is inactive: -0.0527.

Take GGCCAGTA: the “PBM E-score” value was inactive: -0.128. In the case of CGATCAGC, the “PBM E-score” value is inactive: -0.0459.

With AAGGTTAG, the “PBM E-score” value is inactive: -0.0357. With CTGTTAAC, the “PBM E-score” value was inactive: 0.117. Take CACCTCTA: the “PBM E-score” value is inactive: 0.0765. AATGTTAT: the “PBM E-score” value was inactive: 0.278. The figure for ACCACCCC is inactive: -0.0997; for ACTTAAAG it is inactive: -0.0269; for CCAGCACC it is inactive: -0.262. For CCTTACCA, the “PBM E-score” value was inactive: 0.0145. The value for CGGCTTGA was inactive: -0.103. For the sequence TAAACAAA, the “PBM E-score” value is inactive: 0.175.

As for CAACGCCC, the “PBM E-score” value was inactive: -0.102. As to CTTTGGAA, the “PBM E-score” value was inactive: -0.0259. As to CGGATATA, the “PBM E-score” value was inactive: 0.108. On to CCGACAGG, for which the “PBM E-score” value is inactive: -0.0128. The figure for ATCGCGTG is inactive: 0.0811.

For CAATACAG, the “PBM E-score” value was inactive: 0.0839. On to CTACAATC, for which the “PBM E-score” value is inactive: 0.229.

On to AAATTCGC, for which the “PBM E-score” value is inactive: 0.021. Take CCTTAATC: the “PBM E-score” value was inactive: -0.125. Take CGCTGCTC: the “PBM E-score” value was inactive: -0.118. On to GGGCATCA, for which the “PBM E-score” value is inactive: -0.164. On to AACGGCGA, for which the “PBM E-score” value is inactive: -0.0202. As for ACTGAACC, the “PBM E-score” value was inactive: -0.0558. Regarding CTGATGTC, the “PBM E-score” value was inactive: 0.212. In the case of AGCTCCGC, the “PBM E-score” value was inactive: -0.162. The figure for ACTAACGC is inactive: 0.00731; for AACAAGAC it is active: 0.335. The value for CGGTACAC was inactive: 0.189. In the case of GACTGATA, the “PBM E-score” value is inactive: 0.114. The value for AATGGTGC was inactive: -0.0422. The value for AGGGGGGA was inactive: -0.33; that for AATATCTG was inactive: 0.0768; that for TAGTTCCA was at least 0.0606. As for CACTGGGA, the “PBM E-score” value is inactive: -0.0122. For the sequence ACGTATCT, the “PBM E-score” value was inactive: -0.0369. As to CCAATGCC, the “PBM E-score” value was inactive: -0.222. With ATCGATTA, the “PBM E-score” value was at least 0.231. Take GCACTACA: the “PBM E-score” value is inactive: 0.176.

In the case of CGTAGCCC, the “PBM E-score” value was inactive: -0.098. Take AAGGGCCT: the “PBM E-score” value is inactive: -0.148. Turning to AATGTTGG, the “PBM E-score” value is inactive: 0.115.

Take GAAACCGC: the “PBM E-score” value is inactive: 0.00449. Consider ATTTAACG, for which the “PBM E-score” value was inactive: 0.113. AGAGTCGC: the “PBM E-score” value was inactive: -0.111. Regarding AATGGACG, the “PBM E-score” value was at least 0.144.

With GAGCGTCC, the “PBM E-score” value is inactive: -0.119.

For the sequence GGGGCTGA, the “PBM E-score” value was inactive: -0.121. In the case of ATGACACC, the “PBM E-score” value was inactive: 0.266. Turning to ACTCCTAG, the “PBM E-score” value was inactive: -0.00703. For the sequence AGCATTCG, the “PBM E-score” value is inactive: -0.0396.
